These results are taken from ChEMBL document CHEMBL4888484, “Replenishing the malaria drug discovery pipeline: Screening and hit evaluation of the MMV Hit Generation Library 1 (HGL1) against asexual blood stage Plasmodium falciparum ,using a nano luciferase reporter read-out” (2022).

SMILES strings stand for the structures. Out of some 150,000 compounds screened, about 540 (0.36%) showed an effect of 50% or more. This is one part of the list.

The experiment deals with Plasmodium falciparum. Kind of experiment: Primary screen in NF54 nanoGlo assay, in single point, at 2uM, 72h; a lower Z score goes with more inhibition. Format: functional, Erythrocyte. Conditions: timepoint 72 hour.
Broadly, the % Inhibition is the relative decrease from the control value, in per cent. `CCN(C(=O)c1nccn1C)[C@H]1CCCC[C@@H]1O`: the “% Inhibition” value is on record as -22% and the Z score is listed as 1.97.
The like results for `O=C(Cc1nnc2ccc(C(=O)Nc3ccccc3)cn12)Nc1ccc(F)cc1` were, in that order, 32% and -0.7.
The like results for `CS(=O)(=O)N1CCN(C(=O)N2CC[C@H](n3cc(C4CC4)nn3)C2)C1=O` were, in that order, -12% and 1.45.
For `O=C(Nc1cccc2c1COCC2)N[C@H]1CCO[C@@H]1c1ccnn1CC1CC1`, the “% Inhibition” value is reported as -2% and the Z score was 0.21.
The like results for `O=S(=O)(C[C@H]1CCCCO1)Nc1ccc(Br)c(O)c1` were, in that order, 11% and -1.07.
The like results for `COc1ccc(C(=O)CNC(=O)Cc2c(F)cccc2F)cc1` were, in that order, -1% and 0.21.
The like results for `Cc1oc(C)c(C(=O)Nc2cccc(S(=O)(=O)N3CCCC3)c2)c1C` were, in that order, -7% and 0.82.
Take `COc1cc(C(=O)N(CCO)Cc2cccs2)ccc1OC1CCN(C)CC1`: the “% Inhibition” value is listed as -4% and the Z score is listed as 0.83.
Regarding `CN(OCc1ccccc1)C(=O)C(=O)Nc1ccc(F)cc1C#N`, the “% Inhibition” value came out at 5% and the Z score is listed as -0.56.
The like results for `CC[C@H](NS(=O)(=O)c1cc(Cl)cnc1N)c1ccncc1` were, in that order, -3% and 0.43.
The like results for `CCN1CCC[C@H](NC(=O)c2ccccc2-c2nnc(C)o2)C1` were, in that order, -11% and 1.55.
The like results for `Cn1cnnc1NC(=O)CCc1ccccc1` were, in that order, 7% and -1.04.
In the case of `CC1(C)C[C@@H]1C(=O)N(CCCn1ccnc1)Cc1cccnc1`, the “% Inhibition” value is given as -8% and the Z score is on record as 1.5.
The like results for `Nc1c(NCCn2ccnc2)ncnc1-n1cccn1` were, in that order, -6% and 0.7.
The like results for `Cc1ccsc1[C@H](C)NCc1ccc(Cn2ccnc2)cc1` were, in that order, 2% and -0.22.
The like results for `CC(C)CC(NC(=O)c1csc(C2CCCO2)n1)c1ccccn1` (stereo not given) were, in that order, -8% and 1.03.
For the compound `C=CCc1cc(CN(C[C@H]2CCC(=O)N2)C(C)C)ccc1OC`, the “% Inhibition” value came out at 3% and the Z score is on record as -0.47.
The like results for `Cc1cc(C)c2c(c1)N(Cc1nnnn1CC(F)(F)F)CCO2` were, in that order, 3% and -0.39.
The like results for `CCc1ccc(N2CCN(C(=O)CN3C(=O)NC4(CCCCC4C)C3=O)CC2)cc1` (stereo not given) were, in that order, -4% and 0.5.
In the case of `Cc1cc(C(=O)N(Cc2ccccc2)CC2(C)CCOCC2)[nH]n1`, the “% Inhibition” value was -13% and the Z score is given as 1.95.
The like results for `CN(c1nnc(-c2cccn2C)n1C[C@H]1CCOC1)C1CC1` were, in that order, -8% and 1.48.
Regarding `COc1ccc(F)cc1C(=O)C(=O)N[C@H]1CC[C@@H](C(=O)N2CCCC2)C1`, the “% Inhibition” value is -3% and the Z score was 0.27.
The like results for `Cc1ncoc1CNC(=O)c1ncn(C(C)(C)C)n1` were, in that order, 5% and -0.63.
The like results for `COC(=O)c1cccc(-c2nccn2C[C@H](O)c2ccccc2)c1` were, in that order, -8% and 1.57.
The like results for `Cc1ccc(CN2CCN([C@H]3CCN(Cc4ccccc4)C3)CC2)nn1` were, in that order, 6% and -0.85.
Take `CN1CC[C@H](N2CC3(CCC2=O)CCN(c2ccc(Cl)cn2)CC3)C1`: the “% Inhibition” value is -7% and the Z score came to 0.71.
The like results for `Cc1c(C)c2c(c(C)c1NC(=O)CCc1cc3n(n1)CCNC3)NC(=O)CO2` were, in that order, -5% and 0.64.
The like results for `CC(C)(C)NC(=O)N1CCC2(CC1)N[C@@H](Cc1ccccc1)C(=O)N2Cc1ccc(F)cc1` were, in that order, -24% and 2.52.
The like results for `COCCOCc1nc([C@H]2CCN(S(=O)(=O)c3ccc4c(c3)OCCO4)C2)no1` were, in that order, -9% and 1.71.
Consider `Cn1cccc1C(=O)C(=O)N1CCC[C@](C)(Cc2ccc3c(c2)OCO3)C1`, for which the “% Inhibition” value amounted to 5% and the Z score is -0.93.
The like results for `Cc1ccc(CNC(=O)N2CCC3(CC2)NC(=O)c2ccc(F)cc2N3C)cc1` were, in that order, -8% and 1.
The like results for `COc1ccc(CNc2nc3c(C)cccc3cc2-c2noc(C(C)C)n2)c(OC)c1` were, in that order, -11% and 2.07.
The like results for `C=CCC[C@H](O)CN1CCC(Nc2cccc(C)n2)CC1` were, in that order, -2% and 0.2.
For `COc1ccc(N2CCN(C(=O)NC3CCOCC3)CC2)cc1`, the “% Inhibition” value was -13% and the Z score was 2.28.
As to `CCOCC(=O)Nc1ccc(N2CCCC2)c2ncccc12`, the “% Inhibition” value was 14% and the Z score was -1.87.
The like results for `CC(=O)N[C@@H](C)C(=O)N1CCC(COc2cc(Cl)cc(Cl)c2)CC1` were, in that order, 19% and -2.45.
The like results for `CCCC1(C2CCN(C(=O)C(OC)c3ccccc3)CC2)NC(=O)N(CCc2cccs2)C1=O` (stereo not given) were, in that order, 13% and -1.72.
The like results for `Cc1cc(C(=O)NCCCNC(=O)c2cccc(F)c2)on1` were, in that order, -3% and 0.35.
Take `CC1(C)C2CCC1(C)C1(C2)NC(=O)NC1=O` (stereo not given): the “% Inhibition” value is recorded as 4% and the Z score is -0.79.
The like results for `COc1ccc(-c2nnc([C@H](C)OC(=O)CCS(=O)(=O)c3ccccc3)o2)cc1` were, in that order, -10% and 1.55.
The like results for `Cc1ccc(-c2cc(C(=O)N(C)C3CCCCC3)c3c(C)nn(C)c3n2)cc1` were, in that order, 0% and -0.01.
The like results for `O=C1NCCN2CCN(C(=O)CCCc3ccccc3)CC[C@@H]12` were, in that order, -7% and 1.15.
With `COc1cc(Br)c(F)cc1S(=O)(=O)N1CCCNC(=O)[C@@H]1C`, the “% Inhibition” value is reported as -6% and the Z score is reported as 0.66.
The like results for `CCn1nc(C)c(CCn2ccnc2C2CC2)c1C` were, in that order, -3% and 0.38.
`CN(CCCC(C)(C)C)Cc1nnc2n1CCN(C)C2=O`: the “% Inhibition” value is recorded as -3% and the Z score amounted to 0.52.
Regarding `COC(=O)[C@H](NC(=O)CN1CCOc2ccc(Cl)cc21)c1ccc(O)cc1`, the “% Inhibition” value is reported as 34% and the Z score is listed as -0.75.
The like results for `C[C@H]1C[C@@H](C(F)F)n2ncc(C(=O)NC[C@@H](O)C(F)(F)F)c2N1` were, in that order, 0% and -0.01.
The like results for `O=C(NC1CCCCC1)c1[nH]cnc1C(=O)N1CCN(Cc2ccccc2)CC1` were, in that order, 18% and -2.04.
The like results for `COCCN(Cc1csc(COc2cccc(C)c2)n1)C(=O)C1CCCC1` were, in that order, 1% and -0.08.
As to `CCC(CC)n1nccc1C(=O)Nc1sc2c(c1C#N)CCC2`, the “% Inhibition” value is recorded as -2% and the Z score worked out at 0.39.
The like results for `O=C(NCC1(O)CCCC1)Nc1cccs1` were, in that order, -6% and 1.03.
The like results for `Fc1ccc(N2CCC(NCCCn3cccn3)CC2)cc1F` were, in that order, -6% and 0.98.
The like results for `Cc1csc(CCNC(=O)COC2CCCC(C)C2)n1` (stereo not given) were, in that order, -5% and 0.69.
As for `CC(C)c1nnc(NC(=O)NCCc2nnc(-c3ccco3)[nH]2)s1`, the “% Inhibition” value is recorded as -1% and the Z score is 0.27.
Take `CCn1c(CC2CCN(C(=O)Cc3ccncc3)CC2)nn(C)c1=O`: the “% Inhibition” value is given as -7% and the Z score amounted to 1.43.
The like results for `CC(C)(C)OC(=O)N1CCC[C@@H]1CNC(=O)c1ccccc1NC(=O)C(C)(C)C` were, in that order, -5% and 0.5.
The like results for `O=C(Cn1cnc2ccccc2c1=O)Nc1cc(OCc2ccc3c(c2)OCO3)ncn1` were, in that order, 1% and -0.11.
The like results for `CC[C@]1(c2ccc(C)cc2)CC(=O)N(Cc2nccc(N)n2)C1=O` were, in that order, -6% and 0.79.
Turning to `Cc1cc(C)cc(CON=C(N)CCO)c1`, the “% Inhibition” value is listed as 39% and the Z score was -5.07.
As for `CC1(C)[C@H]2CC=C(CCNC(=O)Cc3cccnc3)[C@@H]1C2`, the “% Inhibition” value is -3% and the Z score is recorded as 0.5.
The like results for `COCCn1cnc2c(-c3ccccc3)cn(CC(=O)NCc3ccc(F)cc3)c2c1=O` were, in that order, -9% and 1.37.
As for `COc1ccc(CNCCC(CCC(C)C)C2CCOC(C)(C)C2)cc1` (stereo not given), the “% Inhibition” value stood at 10% and the Z score is given as -1.8.
The like results for `COc1ccc(C(=O)c2c(N)nc3n2CCC3)c(OC)c1` were, in that order, -2% and 0.19.
With `CCc1ccc(-n2cnnc2)cc1NS(=O)(=O)NCc1ccccc1`, the “% Inhibition” value is reported as -2% and the Z score is on record as 0.28.
The like results for `Cc1nnc(C(C)NC(=O)[C@H]2C[C@@H]2c2cccc(Cl)c2)[nH]1` (stereo not given in full) were, in that order, -4% and 0.77.
Consider `Cc1cccc(NC(=O)c2cc(-c3cccnc3)nc3ccccc23)n1`, for which the “% Inhibition” value is given as -3% and the Z score was found to be 0.58.
The like results for `CCC(=O)NC1CCN(C(=O)c2ccc(-c3ccccc3)[nH]2)CC1` were, in that order, -7% and 1.38.
The like results for `Cc1cnn(CC(=O)[C@H](C#N)c2nc3cc(Cl)ccc3c(=O)[nH]2)c1` were, in that order, -9% and 1.66.
Take `CCc1nnc2ccc(NC3CCCCCCC3)nn12`: the “% Inhibition” value was -16% and the Z score was 1.4.
The like results for `COc1ccccc1C(=O)N1CCN(S(=O)(=O)c2cc3c(cc2C)NC(=O)CO3)CC1` were, in that order, -13% and 1.32.
The like results for `Cc1ccc(N2C[C@@H](c3n[nH]c(=S)o3)CC2=O)cc1` were, in that order, -4% and 0.35.
The like results for `CC(C)(C(=O)N1CCC(Cc2nc3ccccc3[nH]2)CC1)c1cccnc1` were, in that order, 28% and -3.21.
With `COc1ccc(CN2C(=O)COC[C@H]2C(=O)Nc2cc(C)c(Cl)cc2OC)c(OC)c1`, the “% Inhibition” value was -2% and the Z score is given as 0.27.
The like results for `C[C@H]1CC(=O)N(C)c2ccccc2N1C(=O)c1ccc2ccccc2n1` were, in that order, 8% and -1.03.
The like results for `CN1CCCCC[C@H](O)c2cc(C(=O)N3CCCCCC3)ccc21` were, in that order, -21% and 2.44.
The like results for `COCCCN1CCN(C(=O)c2cnc(C3CC3)nc2)CC1` were, in that order, -15% and 2.09.
`CN1CCC[C@@H](C(=O)c2ccncc2)C1=O`: the “% Inhibition” value came to 11% and the Z score is -1.22.
The like results for `c1ccc(-c2cn3c4c(sc3n2)CCCCC4)cc1` were, in that order, -13% and 1.52.
The like results for `O=C(O)CC1CCN(Cc2cc3ccccc3o2)CC1` were, in that order, 5% and -0.68.
In the case of `C[C@@H](CN1CCC2(CCC(=O)N(CCc3ccncc3)C2)CC1)c1ccccc1`, the “% Inhibition” value amounted to 5% and the Z score is given as -0.84.
The like results for `Cc1ccc(-c2ncn(C3CCCCC3)c2-c2ccc(C(=O)NCCN3CCOCC3)o2)cc1` were, in that order, -1% and 0.14.
The like results for `COC(=O)C(C)(C)NCc1ccccc1` were, in that order, 29% and -3.25.
The like results for `Cc1noc(C)c1CN(C)C(=O)COc1ccc2ccccc2c1` were, in that order, 25% and -3.65.
For the compound `C#CCNC(=O)CC(=O)Nc1ccc(Cl)c(OC(F)F)c1`, the “% Inhibition” value was -3% and the Z score was found to be 0.36.
The like results for `CN1CCN(c2c(F)cc3c(=O)c(C(=O)O)cn(-c4ccc(OC5CC6CCC5(C)C6(C)C)c(F)c4)c3c2F)CC1` (stereo not given) were, in that order, 37% and -4.72.
